Some of the results follow. Single values are uncertain, as repeats are few or missing.
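Further: cell number obtained by counting DAPI-stained nuclei in high-throughput microscope images with image analysis software, screen run in 1,536-well plates.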

The experiment has as its system WM3619. Kind of experiment: cell count relative to DMSO control; melanoma cells; higher = more viable cells. The conditions noted are these: library dose: low library concentration; 72 h.
`O=C(Nc1cc(C(F)(F)F)cc(C(F)(F)F)c1)c1cc(Cl)ccc1O` + CCCCCCCCCCCCCCCCCCOP(=O)([O-])OC1CC[N+](C)(C)CC1 [Perifosine] (first compound 0.016 µM, partner dose 0.4 µM) had a cell count of 88.9%. The value for `O=C(O)c1ccc2c(c1)nc(Nc1cccc(Cl)c1)c1ccncc12` + NC(=O)Nc1cc(-c2cccc(F)c2)sc1C(=O)N[C@H]1CCCNC1 [AZD7762] (first compound 0.4 µM, partner dose 0.02 µM) was 112%.

With `O=C(Nc1cc(C(F)(F)F)cc(C(F)(F)F)c1)c1cc(Cl)ccc1O` + C#Cc1cccc(Nc2ncnc3cc(OCCOC)c(OCCOC)cc23)c1 [erlotinib] (first compound 0.016 µM, partner dose 0.8 µM), the cell count turned out to be 85.2%. With `O=C(O)[C@@H]1[O][Sb](=[O])([O][Sb]2(=[O])[O][C@H]([C@H](O)CO)[C@H](O)[C@H](C(=O)O)[O]2)[O][C@H]([C@H](O)CO)[C@@H]1O` (stereo not given in full) [stibogluconate] + Nc1nc(F)nc2c1ncn2[C@@H]1O[C@H](CO)[C@@H](O)[C@@H]1O [fludarabine] (first compound 2 µM, partner dose 0.2 µM), the cell count worked out at 92.6%. Molecule `O=C(O)[C@@H]1[O][Sb](=[O])([O][Sb]2(=[O])[O][C@H]([C@H](O)CO)[C@H](O)[C@H](C(=O)O)[O]2)[O][C@H]([C@H](O)CO)[C@@H]1O` (stereo not given in full) [stibogluconate] + Cn1nnc2c(C(N)=O)ncn2c1=O [temozolomide] (first compound 2 µM, partner dose 2 µM) displayed a cell count of 94.3%.

The values are drawn from the supplement of paper PMC4604168 (melanoma cell lines).
